Broadly, the % Inhibition is the relative decrease from the control value, in per cent.

In all, about 150,000 compounds went through this assay and about 540 (0.36%) showed an effect of 50% or more. The list shows a part of the results.

This experiment concerns Plasmodium falciparum. Kind of experiment: Primary screen in NF54 nanoGlo assay, in single point, at 2uM, 72h; a lower Z score goes with more inhibition. In kind it is functional, Erythrocyte. To be noted: timepoint 72 hour.
Regarding `CCc1nnnn1Cc1nccn1C(F)F`, the “% Inhibition” value is listed as -9% and the Z score was determined as 1.44.
The like results for `C[C@H]1C(=O)N(c2ccccc2)CCN1C(=O)c1ccoc1` were, in that order, -7% and 1.37.
The like results for `O=C(c1ccc2c(c1)OCO2)N1CC(N2C(=O)C3CC=CCC3C2=O)C1` (centres undefined) were, in that order, -12% and 1.32.
The like results for `Cc1nc(-c2ccccc2)sc1NC(=O)OC(C)(C)C` were, in that order, -5% and 0.54.
`CCN(C)C(=O)c1ccc(CN2C(=O)COc3ccc(C(=O)COc4ccc(F)cc4C)cc32)o1`: the “% Inhibition” value is 2% and the Z score is reported as -0.29.
`COc1ccc(CC(=O)Nc2ccc(-n3ccnc3C)nc2)cc1OC`: the “% Inhibition” value is listed as -12% and the Z score worked out at 1.97.
Turning to `Cc1ccncc1C(=O)N1CCC2(CC1)NCCc1c2[nH]c2ccccc12`, the “% Inhibition” value is recorded as -5% and the Z score was found to be 0.67.
The like results for `Cc1ccc([C@H](CNc2ncccc2S(C)(=O)=O)N2CCCC2)o1` were, in that order, -31% and 3.61.
Take `Cc1cc(C)c(CNC(=O)c2c[nH]c3ncccc23)c(=O)[nH]1`: the “% Inhibition” value was 31% and the Z score was -4.21.
Taken in the same sequence, the figures for `CCOC(=O)N1CCN(C(=O)Cc2sc(C)nc2-c2ccc(C)cc2)CC1` were 3% and -0.3.
Taken in the same sequence, the figures for `O=C(NCCCn1ccnc1)c1cncc(Br)c1` were -3% and 0.33.
The like results for `Cc1cnccc1NCCn1ccnc1-c1ccc2c(c1)OCCO2` were, in that order, -9% and 1.68.
As for `Cc1nccc(CNC(=O)c2ccc(-c3ccco3)[nH]c2=O)n1`, the “% Inhibition” value was -7% and the Z score worked out at 0.64.
Take `CCn1nncc1CNC(=O)Nc1ccc(C2CCC2)cc1`: the “% Inhibition” value is recorded as -4% and the Z score was 0.57.
Taken in the same sequence, the figures for `COc1c(C)cnc(CN2CCCC[C@@H]2CCn2ccnc2)c1C` were -7% and 1.28.
The like results for `COc1ccc(NCc2ccc(-c3ccc(F)cc3C)o2)cc1N1CCOC1=O` were, in that order, -13% and 1.36.
For `C[C@@H](Cc1cccs1)N(C)S(=O)(=O)c1cccnc1`, the “% Inhibition” value is on record as -3% and the Z score was found to be 0.29.
As for `Cc1nc(N2CCCN(CCCc3ccccc3)CC2)c2c(C)nn(C)c2n1`, the “% Inhibition” value is given as -6% and the Z score is on record as 0.99.
Consider `CC(C)(C)OC(=O)CN1C[C@H](O)C(C)(C)C1`, for which the “% Inhibition” value is recorded as -18% and the Z score stood at 1.77.
Take `CC(C)n1c(CCNC(=O)Cc2ccccc2Cl)nc2cccnc21`: the “% Inhibition” value is listed as -8% and the Z score is given as 0.93.
The like results for `CN1CCOc2ccc(NC(=O)Nc3ccn(CCC#N)n3)cc21` were, in that order, -13% and 1.67.
The like results for `Cc1c(CN2CCCc3cc(Cl)ccc32)cnn1C` were, in that order, 23% and -2.66.
Taken in the same sequence, the figures for `OC[C@@H]1[C@@H](Cc2ccnc(-c3cccnc3)n2)[C@H](NCc2ccc(F)c(F)c2)C[C@H]1O` were -10% and 1.53.
For the compound `FC(F)(F)c1cccc(Nc2c3c(nc4ccc(Cl)cc24)CCCC3)c1`, the “% Inhibition” value is given as -7% and the Z score is reported as 0.96.
For `Cc1c(C(=O)OCCn2cnc3c2c(=O)n(C)c(=O)n3C)ccc2cnc(C3CC3)n12`, the “% Inhibition” value is reported as -3% and the Z score was determined as 0.33.
Taken in the same sequence, the figures for `Cc1ccncc1[C@H]1CCN(Cc2cn(C(C)(C)C)nn2)C1` were -13% and 2.04.
As for `CC1CCCC(OCc2cccc(N)c2)C1` (centres undefined), the “% Inhibition” value is listed as -10% and the Z score was found to be 1.1.
As for `CN1CCCC(C(=O)N2CCN(C3CC3)CC2Cc2ccccc2)C1` (centres undefined), the “% Inhibition” value was -7% and the Z score was determined as 1.09.
Turning to `CC[C@H](NC(=O)CC1CCCC1)c1nccs1`, the “% Inhibition” value was -7% and the Z score is 0.93.
In the case of `O=C1C2C3CCC(C3)C2C(=O)N1c1ccc2c(c1)OCCO2` (centres undefined), the “% Inhibition” value is listed as -14% and the Z score was 1.75.
The like results for `CN(CCn1ccc2ccccc21)Cc1nccn1C1CC1` were, in that order, -13% and 1.35.
In the case of `CN(C)S(=O)(=O)c1ccc2c(c1)ncn2CCC(=O)NCc1ccco1`, the “% Inhibition” value is reported as -6% and the Z score came out at 1.09.
Consider `Cc1nc2cccnc2n1CCN1CCN(C(=O)Nc2cc(F)ccc2F)CC1`, for which the “% Inhibition” value is reported as -4% and the Z score was 0.53.
Taken in the same sequence, the figures for `C[C@@H](Cc1cncc2ccccc12)C(=O)NCCc1nc(C(=O)O)cs1` were 4% and -0.76.
The like results for `CC1CCCCC1NC(=O)CN1CCN(Cc2cccc(Cl)c2)C1=O` (centres undefined) were, in that order, 34% and -4.62.
`C[C@H]1CC(N)=NN1c1ccc(Cl)cn1`: the “% Inhibition” value is -7% and the Z score worked out at 1.29.
Take `COCc1noc(C[C@H]2CN(C(=O)Nc3ccc4[nH]ccc4c3)CCO2)n1`: the “% Inhibition” value is reported as -8% and the Z score is listed as 1.6.
For the compound `Cc1cc(NC(=O)C(=O)N[C@@H](CC(C)C)CN(C)C)no1`, the “% Inhibition” value is given as 5% and the Z score is -0.73.
Turning to `O=C(C1CC2CCC1C2)N1CCn2c(nnc2C(F)(F)F)C1` (centres undefined), the “% Inhibition” value worked out at 2% and the Z score was -0.29.
The like results for `Cc1ccsc1C(=O)NCCc1cn2c(n1)CCCC2` were, in that order, -5% and 1.04.
For the compound `CN(C)c1cc(C(F)(F)F)cc(C#N)n1`, the “% Inhibition” value was -13% and the Z score is 1.45.
Consider `CCN1CCO[C@@H](CNCc2cc3ccccc3o2)C1`, for which the “% Inhibition” value is recorded as 2% and the Z score is on record as -0.31.
For `COc1c(N)ncnc1N1CCC[C@H](C2CC2)C1`, the “% Inhibition” value is reported as -6% and the Z score amounted to 1.12.
Taken in the same sequence, the figures for `CC(C)c1noc([C@H]2CCC(=O)N(C3CCCCCC3)C2)n1` were 6% and -0.52.
The like results for `CC(C)c1cccc(Nc2nc3ccncc3n(C(C)C)c2=O)c1` were, in that order, 91% and -8.7.
Taken in the same sequence, the figures for `O=S(=O)(NC[C@H]1CCOC1)c1cnc(NCCCO)c(Cl)c1` were 4% and -0.46.
With `CN(C)C(=O)[C@H]1CC[C@@H](C(=O)N2CCC2(C)C)O1`, the “% Inhibition” value is 6% and the Z score is recorded as -0.57.
The like results for `CC1CCN(C[C@H]2CCCCCN2C(=O)NCCc2ccccc2)CC1` were, in that order, 44% and -6.24.
Taken in the same sequence, the figures for `Cc1ccnn1CCC(=O)N1CC[C@@H]2OCc3cccc(c3)Oc3cccc(c3)CCC(=O)N(C)CC(=O)N[C@@H]2C1` were 6% and -1.1.
The like results for `CCC(CC)(C(=O)NCCc1ccccn1)C(=O)OC(C)(C)C` were, in that order, 0% and 0.03.
`c1ccc2nc(NCCCN3CCOCC3)cnc2c1`: the “% Inhibition” value is given as 4% and the Z score was -0.5.
Taken in the same sequence, the figures for `CCOc1ncccc1NC(=O)c1ccsc1` were -6% and 1.09.
Taken in the same sequence, the figures for `N#Cc1nccnc1NC1C2CCC1Cc1ccccc1C2` (centres undefined) were -5% and 0.88.
As to `COc1ccccc1OCC[C@H]1CCN(C(=O)CC(C)C)C1`, the “% Inhibition” value is listed as -11% and the Z score is listed as 2.19.
The like results for `N#Cc1ncn(CC(=O)Nc2ccccc2-c2ccccc2)c1C#N` were, in that order, -4% and 0.52.
The like results for `CC(C)c1noc([C@H](C)NS(=O)(=O)c2ccc3c(c2)OCCCO3)n1` were, in that order, -19% and 2.
Taken in the same sequence, the figures for `CO[C@@H](C)c1noc(CCC(=O)N2CCN3CCOc4cccc2c43)n1` were 1% and -0.1.
In the case of `Cc1ccc(CNC(=O)Cn2c(C)cc(C)c2-c2nc(C(C)C)no2)cc1`, the “% Inhibition” value is reported as 3% and the Z score was -0.48.
Turning to `O=c1ccccn1S(=O)(=O)c1cc(Cl)ccc1Cl`, the “% Inhibition” value is -9% and the Z score turned out to be 1.08.
As for `CC1(C)C[C@@H]2C[C@@](C)(CN2C(=O)c2cc(-n3cnnn3)[nH]n2)C1`, the “% Inhibition” value is given as -5% and the Z score turned out to be 0.91.
The like results for `O=C(c1cn2cccnc2n1)N1CCc2sccc2C1` were, in that order, -16% and 2.49.
The like results for `O=C(CC1(C(=O)O)CCC1)N1CCCC[C@@H]1Cc1ccc(F)cc1` were, in that order, -18% and 1.49.
Taken in the same sequence, the figures for `CCCn1cc(NC(=O)c2sc(N(C)C)nc2C)cn1` were -7% and 1.18.
Regarding `O=C(CN1C(=O)[C@@H]2CCCCN2C(=O)c2ccccc21)Nc1nccs1`, the “% Inhibition” value is given as -13% and the Z score is recorded as 1.69.
As for `CC(C)(C)[C@H]1CCCN(c2ccc(C#N)cc2CS(N)(=O)=O)C1`, the “% Inhibition” value was -8% and the Z score is listed as 1.55.
Take `O=C(N[C@H]1CCN(c2ncnc3c2CCC3)C1)c1cnccn1`: the “% Inhibition” value is reported as -6% and the Z score was 0.97.
The like results for `CCN(Cc1nc2c(s1)C[C@@H](C)CC2)C(=O)c1cnsn1` were, in that order, 0% and 0.06.
The like results for `O=C1NCCCc2cc(O[C@H]3CCCN(c4cccc(F)c4)C3=O)ccc21` were, in that order, -7% and 0.99.
Taken in the same sequence, the figures for `C[C@H](NC(=O)CCC1CCN(C)CC1)[C@H](O)c1ccc(O)cc1` were -7% and 0.82.
`O=C(NC1CC1)c1cccc(CCOc2ccc(F)cc2)c1`: the “% Inhibition” value is given as 3% and the Z score was -0.46.
The like results for `Cc1occc1C(=O)NC1(c2ccccc2)CCOCC1` were, in that order, 33% and -4.44.
The like results for `CNC(=O)c1ccc(NC2CCCCCC2OC)nn1` (centres undefined) were, in that order, -16% and 1.76.
Consider `COC(=O)C(C)(C)CNCc1scnc1C`, for which the “% Inhibition” value was -10% and the Z score is 1.31.
Taken in the same sequence, the figures for `CCOc1cc(CCCNC(=O)[C@@H]2CCO2)ccc1OC` were -10% and 1.38.
Take `CCc1nc(NC2CCC(NC(=O)c3cccc(F)c3)CC2)c2c(C)nn(-c3ccccc3C)c2n1` (centres undefined): the “% Inhibition” value worked out at 16% and the Z score is reported as -1.88.
Turning to `CC1(C)CCCN(C(=O)c2ccc3c(c2)NC(=O)CO3)CC1`, the “% Inhibition” value is recorded as -9% and the Z score was determined as 0.94.
On to `CC(NCC(O)C(C)C)c1csnn1` (centres undefined), for which the “% Inhibition” value was determined as 4% and the Z score was -0.64.
For the compound `CNc1ccc(Nc2nc(C(C)C)ns2)cn1`, the “% Inhibition” value is listed as -4% and the Z score is 0.43.
Turning to `CCCc1nc(C(=O)NC[C@H]2CCCN(C(=O)c3oc(C)nc3C)C2)cs1`, the “% Inhibition” value is -6% and the Z score is recorded as 0.55.
Taken in the same sequence, the figures for `CC(C)N1CCN(C(=O)C2C3C(=O)N(CCc4ccncc4)C[C@@]34C=C[C@@H]2O4)CC1` (some centres undefined) were -11% and 2.24.
With `Cc1ccc(NC(=O)Cn2nc3c4sc(N(C)C)nc4ncn3c2=O)cc1F`, the “% Inhibition” value is given as -19% and the Z score worked out at 1.81.
Taken in the same sequence, the figures for `CC(C)COCC(C)NC(=O)NC(C)C1CCOCC1` (centres undefined) were 0% and -0.02.
In the case of `O=C(NCCc1ccccc1)Nc1ccc2c(c1)N(C(=O)c1ccccc1)CCC2`, the “% Inhibition” value was -2% and the Z score is 0.47.
Taken in the same sequence, the figures for `CCCN1C(=O)COc2cc(-c3noc(C(=O)NC4CCN(Cc5ccccc5)CC4)n3)ccc21` were 7% and -0.78.
Taken in the same sequence, the figures for `Cc1cc(OCc2noc(-c3ccc(C(F)(F)F)cc3)n2)ccc1F` were -4% and 0.8.
`CC(=O)N[C@H]1C[C@@H](c2ccc(O)c(Cl)c2)O[C@@H](C2CCCCC2)C1`: the “% Inhibition” value is 0% and the Z score is 0.09.
Consider `CC(C)CCc1noc(CNS(=O)(=O)c2cccs2)n1`, for which the “% Inhibition” value stood at 3% and the Z score is on record as -0.52.

Values taken from ChEMBL document CHEMBL4888484, “Replenishing the malaria drug discovery pipeline: Screening and hit evaluation of the MMV Hit Generation Library 1 (HGL1) against asexual blood stage Plasmodium falciparum ,using a nano luciferase reporter read-out” (2022).
